Source: PubChem BioAssay AID588855 (National Center for Advancing Translational Sciences (NCATS), 2011)
Screen size: about 410,000 compounds; about 5,000 (1.2%) were called active. The inconclusive results got no clear call from the source; some entries with a clear call stand among them for comparison. Calls come from the whole dose curve; as a rule, active = well fitted inhibition curve with a large enough effect; inconclusive = small, poorly fitted or top-dose-only effect; inactive = no such curve, though single readings can be large or run the other way. Where the call is inconclusive, the potency comes from a doubtful curve fit.

test: qHTS for Inhibitors of TGF-b; conditions: HepG2 CAGA-GFP TGF-b/SMAD3 reporter, GFP fluorescence, 18 h, TGF-beta stimulated, 500 pg/mL final; series mostly up to 46.1 µM; activity, negative = inhibition: at the top concentration; note: nearly all actives have a fitted effect of over 65% in size
In short: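 HEPG2 CAGA-GFP reporter cells (1000/well, DMEM with 1% FBS) received compounds, then recombinant TGF-beta at 500 pg/mL final for 18 hours at 37 degrees C. Per-cell GFP summed per well was normalised to unstimulated and stimulated DMSO controls before curve fitting.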
% is set by controls: 0 for no effect and ±100 for the full control effect; potency is the fitted concentration of half-maximal effect; tags give direction and shape of the fitted curve.

SMILES	activity, negative = inhibition	Potency
CCOc1ccc(C(=O)Nc2ccc3oc(-c4ccncc4)nc3c2)cc1	inactive: -0.618%	–
O=[N+]([O-])c1cc(-c2n[nH]c(-c3ccccc3)n2)cc([N+](=O)[O-])c1	–	inconclusive: 12.6 µM [inhibitor, partial curve, poor fit]
CCC(C)c1ccc(S(=O)(=O)N2CCN(c3ccccn3)CC2)cc1 (configuration not stated)	–	inconclusive: 14.1 µM [inhibitor, single point]
CN(C)c1cc[n+](CC(=O)Nc2ccc(OC(F)F)cc2)cc1	–	inconclusive: 12.6 µM [inhibitor, partial curve, poor fit]
Cc1cc(=O)n(CC(=O)NC(C)c2ccccc2)c2c1c(C)nn2C (configuration not stated)	–	inconclusive: 7.94 µM [inhibitor, partial curve, poor fit]
O=[N+]([O-])c1c(Nc2ccccc2O)cc(Cl)c2nonc12	–	active: 3.98 µM
COc1ccc(C2c3cc4c(cc3OC(N3CCOCC3)C2C)OCO4)c(OC)c1 (configuration not stated)	–	inconclusive: 8.91 µM [inhibitor, partial curve, poor fit]
NC(=O)c1cccc(-c2ccnc3c2CC(C(=O)Nc2cccc(Oc4ccccc4)c2)O3)c1 (configuration not stated)	–	inconclusive: 35.5 µM [inhibitor, single point]
COc1cc(CCCN2CCNC[C@@H]2c2ccccc2)cc(OC)c1OC	inactive: -6.47%	–
COCCCNC(=O)CCn1c(=O)c2ccccc2n(CC(=O)Nc2ccccc2C)c1=O	–	inconclusive: 0.708 µM [inhibitor, full curve, poor fit]
CCC1Sc2ccc(S(=O)(=O)CCC(=O)Nc3cccc(Br)c3)cc2NC1=O (configuration not stated)	–	inconclusive: 22.4 µM [inhibitor, single point]
Cc1ccc(Nc2nc(-c3c(C)nc4ccccn34)cs2)cc1	–	active: 10 µM
CCCN(CC1CC1)C(=S)Nc1ccc(Oc2ccccc2)cc1	–	inconclusive: 15.8 µM [inhibitor, partial curve, poor fit]
CS(=O)(=O)c1ccc(C(=O)OCC(=O)N2CCCC2)cc1[N+](=O)[O-]	–	active: 11.2 µM
C=CCOc1ccc2c(c1)C(=NO)c1cc(OCC=C)ccc1-2	–	inconclusive: 3.55 µM [inhibitor, single point]
CCOc1cc2[nH]c(=S)n(Cc3ccc(C(=O)NCCN(CC)CC)cc3)c(=O)c2cc1OCC	–	inconclusive: 14.1 µM [inhibitor, single point]
FC(F)(F)c1ccc(C2[C@H]3CN(CC4CCCCC4)[C@H](c4ccccc4)C34CC2(c2cccnc2)C4)cc1 (some centres not stated)	–	inconclusive: 3.55 µM [inhibitor, partial curve, poor fit]
